Experimental data as given in PubChem BioAssay AID743279 (National Center for Advancing Translational Sciences (NCATS), 2014).
The campaign covered roughly 360,000 compounds. About 17,000 (4.7%) were called active. The shares of active, inactive and inconclusive entries below differ from those in the screen. Rule as the data show it: active = activity change below about -50%; inconclusive = mostly about -30% to -49%; inactive = weaker than that.

Assay: qHTS for Inhibitors of Inflammasome Signaling: IL-1-beta AlphaLISA Primary Screen
Settings: THP-1 LPS/ATP IL-1B secretion, 16 h; at 57.5 µM, active compounds read low
Summary of the method: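 THP-1 cells pretreated 1 hr with compounds (up to 57.5 uM final), then stimulated with LPS (250 ng/mL final) plus ATP (1.25 mM final); secreted IL-1B measured by AlphaLISA after 16 hr, decreased signal indicating inhibition.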
% is scaled to controls: 0 for no effect and ±100 for the full control effect.

Activity change, inconclusive:
CN(C)C(CNC(=O)CCc1c[nH]c2ccccc12)c1ccccc1 (stereo not given) -45.7%
C[C@H](CO)N1C[C@H](C)[C@@H](CN(C)C(=O)NC2CCCCC2)Oc2c(NC(=O)Nc3ccccc3)cccc2C1=O -31.8%
COc1cnn(-c2cccc(C)c2)c(=O)c1Cl -41.9%
O=C(c1ccc2ncsc2c1)N1CCCCC1 -48.7%
O=C(NC1CCCCC1)C(c1ccco1)N(Cc1cccnc1)C(=O)C1COc2ccccc2O1 (stereo not given) -31.8%
CCOc1cc(NC(=S)NCCCN(C)C)c(OCC)cc1NC(=O)c1cccs1 -48.6%
Cc1ccc(/C=C2\CCOC2=O)cc1 -31.1%
COc1ccc(Br)cc1CNC(C)c1ccccc1 (stereo not given) -39.5%
CCOC(=O)Nc1ccc2c(c1)N(C(=O)CCN(CC)CC)c1ccccc1CC2 -47%
Cc1ccc(OCCn2c(C)nc3ccccc32)cc1 -40.1%
O=C(CN1C(=O)/C(=C/c2ccccc2)SC1=S)NC1C=CS(=O)(=O)C1 (stereo not given) -34.7%
CN1C(CC(=O)Nc2ccc(Br)cc2)c2ccccc2CC1(C)C (stereo not given) -34.2%
COc1ccccc1CNc1nc(Nc2ccccc2Cl)c2sccc2n1 -49.5%
O=C(Nc1ccccc1Oc1cccnc1)C1CCCN(C/C=C/c2ccccc2)C1 (stereo not given) -48.2%
Cc1ccc(NC(=O)C(C)OC(=O)c2ccc(NS(=O)(=O)c3ccc(F)c(F)c3)cc2)cc1 (stereo not given) -40.5%
Cc1ccc(CN(Cc2cc3cc4c(cc3[nH]c2=O)OCCO4)Cc2nnnn2Cc2ccco2)cc1 -30.9%
CNC(=S)N1N=C(c2ccc(Br)cc2)CC1c1ccc(Br)cc1 (stereo not given) -33%
CC1CCCC(NC(=O)CN2CCN(S(=O)(=O)c3ccc(Br)s3)CC2)C1C (stereo not given) -33.9%
Cc1ccc(-c2cc(C(=O)OCC(=O)N(C)c3c(N)n(Cc4ccccc4)c(=O)[nH]c3=O)c3ccccc3n2)o1 -43.3%
COc1ccc(NS(=O)(=O)c2ccc(-c3coc(C)n3)cc2)cc1OC -40.6%
Nc1nn(-c2ccccc2)c2ccc([N+](=O)[O-])cc12 -34.9%
c1ccc(SCc2nc(-c3ccncc3)no2)cc1 -30.6%
Cc1ccc2[nH]c(=O)c(CN3CCCCC3)c(-c3ccccc3)c2c1 -47.8%
CCCCNC(=O)C(CC)(ONc1ccccc1C(F)(F)F)c1ccccc1 (stereo not given) -48.5%
Cc1occc1C(=O)N/N=C/C(Br)=C\c1ccccc1 -33.6%
CC1(C)CC(=O)C=C(Nc2cc(-c3ccccc3)[nH]n2)C1 -48%
CC(C)=CCC/C(C)=C/C=N/NC(=O)c1ccccc1[N+](=O)[O-] -30%
C=CCn1c(SCC(=O)NC2CCS(=O)(=O)C2)nnc1-c1cc2c(s1)CCC(CC)C2 (stereo not given) -31.3%
O=C(c1ccc2c(=O)n3c(nc2c1)CCCCC3)N1CCN(c2ccc(Cl)cc2)CC1 -43.4%
OC[C@@H]1[C@@H](c2ccc(F)cc2)C(c2ccccc2)=NN1c1ccccc1 -30.6%
O=C(Nc1ncccn1)c1cc(-c2ccc(F)cc2)nc2ccccc12 -31.6%
Cc1cc(C)c(-c2csc(NC(=O)CCCc3nc4ccccc4c(=O)[nH]3)n2)c(C)c1 -35.5%
COC(=O)c1ccc(CNC(=O)CSC2=NCCS2)cc1 -38%
CNC(=O)c1ccc(Nc2nnc(-c3ccc(C)c(S(=O)(=O)NCC4CCCO4)c3)c3ccccc23)cc1 (stereo not given) -37.3%
O=C1Nc2ccccc2N=C(c2ccc3c(c2)OCO3)C1N(CCc1ccccc1)C(=O)CSc1ncccn1 (stereo not given) -46.3%
Cc1ccc(C(=O)O/N=C/c2c(C(F)(F)F)nn(C)c2Sc2ccc(Cl)cc2)cc1 -32%
OCCN(CCO)CC(O)COc1ccc(C23CC4CC(CC(C4)C2)C3)cc1 (stereo not given) -32.9%
Cc1noc(C)c1S(=O)(=O)N(CC(=O)Nc1ccc2c(c1)OCCO2)c1ccc(C(C)C)cc1 -46.2%
CC(C)Cc1ccc(C2=CSC3=NCCN23)cc1 -47.8%
COc1ccc(C(C(=O)NC2CCCC2)N(C(=O)c2ccoc2C)c2ccc(C)c(C)c2)cc1 (stereo not given) -39.6%
CCOc1ccc2nc(NC(=O)c3ccoc3C)sc2c1 -38.5%
O=C(Cc1ccc(Cl)cc1)Nc1ccc2oc(=O)ccc2c1 -48.1%
CC(C)C[C@H](N)c1nnc(S(=O)(=O)Cc2cccc(F)c2)o1 -41%
Cc1[nH]c2ccc(C(=O)NCc3ccccn3)cc2c1C -38.8%
COc1ccc(CN2CCN(C(=O)c3ccc(S(=O)(=O)N4CCCCCC4)cc3)CC2)cc1 -32.8%
O=C1N[C@@H](Cc2ccccc2)COC(=O)[C@@H](Cc2ccc(F)cc2)C/C=C\C[C@@H]1CC(=O)N(CCO)Cc1ccccc1 -35.6%
Cc1cc(C)n(-c2ccc(C(=O)NC3CCCCC3)cc2)n1 -44.7%
Cc1nc(SCC(=O)Nc2ccc(S(=O)(=O)N3CCOCC3)cc2)c2c(C)c(C)sc2n1 -30.1%
CCOCCCNS(=O)(=O)c1ccc(NC(=O)N2c3ccccc3Sc3ccccc32)cc1 -45.8%
Cc1ccc(C)c(OCCC(=O)Nc2cccc(S(=O)(=O)N3CCCCC3)c2)c1 -44.6%
O=C(CCn1c(=O)[nH]c2ccccc2c1=O)N1CCN(c2cccc(C(F)(F)F)c2)CC1 -38.3%

Activity change, active:
CCc1ccc(NC(=S)NC2CC3CCCC(C2)N3Cc2cccs2)cc1 (stereo not given) -90.5%
Cc1cc(C)c(S(=O)(=O)Nc2cnc3ccccc3c2)c(C)c1 -73.3%
CN1CCN(c2nc(C(N)=O)cc(-c3ccccc3)n2)CC1 -57.4%
CCc1ccc(C2NC(=S)NC3=C2C(=O)N(c2ccccc2OC)C(c2ccc(CC)cc2)N3)cc1 (stereo not given) -78.7%
C=CCNc1nc(NCCOc2ccccc2Cl)c2sc(-c3ccccc3)cc2n1 -111%
COc1ccccc1-c1nc(-c2ccccc2)nc(N2CCN(C)CC2)c1C#N -52.2%
O=C(Nc1ccc2c(c1)CCC2)c1cccs1 -63.4%
CC(=O)C1=CCC(c2ccc(Cl)c(Cl)c2)N(S(=O)(=O)c2ccc(C)cc2)C1 (stereo not given) -83.8%
COC(=O)c1ccc(N2CCN(C(=O)c3ccccc3)CC2)c(NC(C)=O)c1 -107%
COc1cccc(NC(=O)Nc2nc(-c3ccc(OC)c(OC)c3)cs2)c1 -104%

Activity change, inactive:
O=C(CN1CCNCC1)N1CCOCC1 7.26%
CCN(C(=O)c1ccc(Cl)c([N+](=O)[O-])c1)c1ccccc1 -24%
CC1CCN(S(=O)(=O)c2cc(C(=O)NC3(C)CCS(=O)(=O)C3)ccc2Br)CC1 (stereo not given) 19.4%
COc1cc(C(=O)NNC(=O)CNC(=O)c2ccc(Br)o2)cc(OC)c1OC 6.03%
CCOC(=O)c1c(N)n(CCOC(=O)c2cccs2)c2nc3ccccc3nc12 -28.7%
Cc1ccc(S(=O)(=O)N2CCC(=O)N(CCOCc3ccc(Cl)cc3)CC2)cc1 -15.7%
Fc1ccc(COc2ccc3ccccc3c2CNc2nn[nH]n2)cc1 -10.2%
Cc1nc2ccccc2n1CC(=O)c1ccc(O)c(O)c1 35.4%
Cc1cccc(NC(=O)CCCn2c(=S)[nH]c3ccccc3c2=O)c1 -9.86%
O=C(Cn1nnc(-c2ccccc2)c1COc1ccc2ccccc2c1)NCC1CC1 -8.59%
CCOC(=O)C1(CCCc2ccccc2)CCN(C(=O)c2ocnc2C)CC1 -19.9%
COCCNC(=O)C1(C)CCCN(C(=O)c2ccc(-c3ccccc3)cc2)C1 (stereo not given) 22.6%
CC1(C(=O)O)CCC(C(=O)NNC(=O)c2ccccc2O)C1(C)C (stereo not given) 16.2%
O=C1C2CC=CCC2C(=O)N1c1n[nH]c(Cc2ccccc2)n1 (stereo not given) 9.78%
Cc1ccc(NC(=O)CSc2nc3[nH]ncc3c(=O)[nH]2)cc1Cl 2.35%
Cc1cccc(CN2CCC(CNC(=O)Nc3ccccc3F)CC2)c1 -11.5%
COc1ccc(CCNC(=O)C(=O)NCC2CCCN2S(=O)(=O)c2cccs2)cc1 (stereo not given) -10.9%
CCN(C(=O)CSc1ccccn1)C1CCCCC1 0.883%
CCOC(=O)c1ccc(NC(=S)NCCCN2CCOCC2)cc1 58.7%
COc1ccc(C(=O)NC2CCSc3ccccc32)cc1S(=O)(=O)N1CCOCC1 (stereo not given) 2.73%
O=C(NC1CC2CCCC(C1)N2CC(=O)N1CCCc2ccccc21)C1CCCCC1 (stereo not given) -9.13%
Cc1onc(-c2ccccc2)c1C(=O)N(C)CC(=O)Nc1ccc(F)c(F)c1F 26.6%
N#Cc1ccc(-c2ccccc2)nc1SCC(=O)c1cc2ccccc2oc1=O 10.2%
CCc1ccc(C(=O)C(C)OC(=O)Cn2[nH]c(=O)c3ccccc3c2=O)cc1 (stereo not given) -19.1%
